Results as given in PubChem BioAssay AID1460 (National Center for Advancing Translational Sciences (NCATS), 2008).
Hit rate of the full screen: of about 270,000 compounds, about 5,800 (2.1%) were called active. The inconclusive results got no clear call from the source; some entries with a clear call stand among them for comparison. Calls come from the whole dose curve; as a rule, active = well fitted inhibition curve with a large enough effect; inconclusive = small, poorly fitted or top-dose-only effect; inactive = flat fitted curve, though single readings scatter. Where the call is inconclusive, the potency comes from a doubtful curve fit.

Molecular target: Microtubule-associated protein tau (Homo sapiens) (UniProt P10636)
Test: qHTS for Inhibitors of Tau Fibril Formation, Thioflavin T Binding; note: nearly all actives have a fitted effect of over 55% in size
Conditions: recombinant tau K18 P301L, heparin-induced fibrillization, ThT fluorescence; series mostly up to 57.4 µM; activity, negative = inhibition: at the top concentration
How it was run: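 Fibril formation assay: tau K18 P301L at 15 uM with trace Alexa 594 label, heparin inducer 20 uM, pH 7 sodium acetate buffer, 37 C for 6 hr; endpoint ThT signal.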
% is set by controls: 0 for no effect and ±100 for the full control effect; potency is the fitted concentration of half-maximal effect; tags give direction and shape of the fitted curve.

UniProt P10636, sequence (P10636 whole entry, looked up): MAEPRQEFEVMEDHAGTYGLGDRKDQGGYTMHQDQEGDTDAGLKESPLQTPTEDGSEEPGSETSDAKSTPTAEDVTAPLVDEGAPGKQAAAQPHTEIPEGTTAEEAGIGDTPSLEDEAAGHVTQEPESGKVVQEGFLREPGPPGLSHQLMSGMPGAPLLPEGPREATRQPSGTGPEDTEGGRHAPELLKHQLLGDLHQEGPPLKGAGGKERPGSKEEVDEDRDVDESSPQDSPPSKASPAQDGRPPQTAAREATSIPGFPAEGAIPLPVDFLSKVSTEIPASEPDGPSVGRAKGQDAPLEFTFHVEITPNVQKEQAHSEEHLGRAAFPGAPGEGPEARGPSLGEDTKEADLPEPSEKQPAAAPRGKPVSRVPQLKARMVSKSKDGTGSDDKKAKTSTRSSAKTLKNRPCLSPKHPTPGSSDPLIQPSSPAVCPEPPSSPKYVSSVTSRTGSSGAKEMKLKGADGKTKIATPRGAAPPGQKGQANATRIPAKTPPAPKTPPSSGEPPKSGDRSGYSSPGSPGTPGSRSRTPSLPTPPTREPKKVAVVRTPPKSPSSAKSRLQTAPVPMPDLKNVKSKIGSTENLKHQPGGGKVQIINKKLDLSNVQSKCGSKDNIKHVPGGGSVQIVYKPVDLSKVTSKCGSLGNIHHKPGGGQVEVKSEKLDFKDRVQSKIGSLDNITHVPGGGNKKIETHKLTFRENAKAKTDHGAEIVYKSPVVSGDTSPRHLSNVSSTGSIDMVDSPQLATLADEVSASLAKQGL

| SMILES | Potency | activity, negative = inhibition |
| --- | --- | --- |
| COc1ccc(-c2nnc(SCC(=O)c3ccc[nH]3)o2)cc1 | inconclusive: 11.2 µM [inhibitor, partial curve] |  |
| COc1ccc(/C=C/C(=O)NC(=S)NNC(=O)c2cccs2)cc1OC | inconclusive: 0.126 µM [inhibitor, full curve] |  |
| CCCc1nnc(NC(=O)Cc2coc3c(C)c(C)ccc23)s1 |  | inactive: 4.4% |
| O=C(CCl)N1N=C(c2cccs2)CC1c1ccco1 (centres undefined) | inconclusive: 17.8 µM [inhibitor, partial curve] |  |
| CCOc1ccc(C2C(C#N)=C(C)NC3=C2C(=O)c2ccccc23)cc1 (centres undefined) | inconclusive: 28.2 µM [inhibitor, partial curve] |  |
| COc1cc(O)c(/C=N/NC(=O)c2ccncc2)c(OC)c1[N+](=O)[O-] | inconclusive: 8.91 µM [inhibitor, partial curve] |  |
| O=C(Nc1nc(-c2ccco2)c(-c2ccco2)s1)C1CCC1 | inconclusive: 22.4 µM [inhibitor, single point] |  |
| CN1C(=O)C(O)(CC(=O)/C=C/c2ccco2)c2cc(Br)ccc21 (centres undefined) | inconclusive: 39.8 µM [inhibitor, single point] |  |
| O=C(/C=C/c1ccncc1)c1ccc2c(c1)OCCO2 | inconclusive: 3.16 µM [inhibitor, full curve] |  |
| COc1cccc(-c2oc3ccc(C)cc3c(=O)c2O)c1 | inconclusive: 2.51 µM [inhibitor, full curve] |  |
| CCOc1ccc(Nc2nc(C)c(NC(=O)c3cccc(F)c3)c(Nc3ccc(OCC)cc3)n2)cc1 | inconclusive: 14.1 µM [inhibitor, partial curve, poor fit] |  |
| Cc1ccc(Cn2c(CNC(=O)c3ccc(Cl)c([N+](=O)[O-])c3)nc3cccnc32)cc1 | inconclusive: 28.2 µM [inhibitor, partial curve] |  |
| CC(=O)c1ccc(NC(=O)CC2Nc3cc(C)c(C)cc3NC2=O)cc1 (centres undefined) | inconclusive: 17.8 µM [inhibitor, partial curve] |  |
| O=C(N/N=C1\CCc2ccccc21)c1ccc(O)cc1 | inconclusive: 2 µM [activator, partial curve] |  |
| O=C(CSc1ncn[nH]1)NCc1ccccc1 |  | inactive: -7.61% |
| COc1ccc(C(=O)/C=C/c2ccccc2)c(OC)c1 | inconclusive: 0.794 µM [inhibitor, single point] |  |
| O=C(CNc1ccc2ccccc2c1)N/N=C/c1ccc([N+](=O)[O-])o1 | inconclusive: 11.2 µM [inhibitor, partial curve] |  |
| Cn1c(C(=O)NCCc2ccccc2)cc2sc(Cl)cc21 | inconclusive: 12.6 µM [inhibitor, partial curve] |  |
| Cc1ccc(CNC(=O)CSc2nc3ccsc3c(=O)n2-c2ccc(Br)cc2)cc1 |  | inactive: -3.01% |
| C[C@@H](C(=O)Nc1nc(-c2ccccn2)cs1)N1C(=O)C2CCCCC2C1=O (some centres undefined) | inconclusive: 28.2 µM [inhibitor, partial curve] |  |
| COc1ccc(OC)c(NC(=O)Nc2nnc(N3CCC(C)CC3)s2)c1 | inconclusive: 20 µM [inhibitor, partial curve, poor fit] |  |
| O=[N+]([O-])c1ccc(NC(=S)N2CCN(c3ccccc3)CC2)cc1 | inconclusive: 15.8 µM [inhibitor, partial curve] |  |

| SMILES | Potency | activity, negative = inhibition |
| --- | --- | --- |
| CCOc1cc(/C=N/N=C2/NC(=O)C(CC(=O)O)S2)ccc1OCc1ccc(Cl)cc1 (centres undefined) | inconclusive: 20 µM [inhibitor, partial curve] |  |
| O=C(COC(=O)c1ccc(Cl)nc1)Nc1ncc(Cl)cc1Cl |  | inactive: -2.17% |
| Cc1ccc(C(=O)N/C(=C/c2ccc(-c3cccc([N+](=O)[O-])c3)o2)C(=O)NC(C)C)cc1 | inconclusive: 39.8 µM [inhibitor, single point] |  |
| COc1ccc(CNC(=O)C2CCN(c3nnc(-n4c(C)ccc4C)s3)CC2)c(OC)c1 | inconclusive: 39.8 µM [inhibitor, single point] |  |
| Cc1cccc(C2CN(C)CCc3c2cc(O)c(O)c3Cl)c1 (centres undefined) | inconclusive: 28.2 µM [inhibitor, single point] |  |
| CCOc1ccc(NC(=O)N(C2CCCCCC2)C2CCN(C(C)=O)CC2)cc1 | inconclusive: 22.4 µM [inhibitor, partial curve] |  |
| Cc1nc2ccc(S(=O)(=O)N(C)CC(=O)Nc3ccc(C(C)C)cc3)cc2s1 |  | inactive: -14.7% |
| O=C(COc1ccccc1C(=O)O)Nc1nc2ccc([N+](=O)[O-])cc2s1 | inconclusive: 2.82 µM [inhibitor, full curve] |  |
| Cc1[nH]nc2c1C1(C(=O)N(Cc3ccc(Cl)cc3)c3ccccc31)C(C#N)=C(N)O2 (centres undefined) |  | inactive: -6.86% |
| COc1ccc(-c2ccc(/C=N/NC(=O)Cc3nnc(N)s3)o2)cc1Cl | inconclusive: 12.6 µM [inhibitor, partial curve] |  |
| CCCOC(=O)c1cccc(NC(=O)c2c(-c3ccccc3Cl)noc2C)c1 |  | inactive: -12.6% |
| COCCSc1ccccc1C(=O)NCCCn1ccnc1 |  | inactive: 2.8% |
| COc1ccc(NC(=O)CSc2nc(-c3cc(OC)c(OC)c(OC)c3)[nH]c2-c2ccc(F)cc2)cc1 | inconclusive: 12.6 µM [inhibitor, partial curve] |  |
| Nc1nc(-c2ccc([N+](=O)[O-])cc2)cs1 | inconclusive: 14.1 µM [inhibitor, partial curve] |  |
| O=C(Cn1c(C(=O)NCC2CCCO2)cc2sccc21)c1ccccc1 (centres undefined) |  | inactive: -6.96% |
| C=CCn1c(SCC(=O)N2CCc3ccccc3C2)nc2sc(CC)cc2c1=O |  | inactive: -15.3% |
| O=C(c1nnsc1S(=O)c1ccc(Cl)cc1)N1CCOCC1 (centres undefined) | inconclusive: 8.91 µM [inhibitor, partial curve] |  |
| CC1=C(C#N)C2(O)C(=O)c3ccccc3C2(O)N1 (centres undefined) |  | inactive: -16.2% |
| CCOC(=O)c1c(-c2ncc(C(F)(F)F)cc2Cl)noc1C |  | inactive: 1.05% |
| Nc1nc(-c2cccc(F)c2)cs1 | inconclusive: 17.8 µM [inhibitor, partial curve] |  |
| CCOc1ccc(NC(=O)CCC(=O)N/N=C/c2ccc([N+](=O)[O-])s2)cc1 | inconclusive: 28.2 µM [inhibitor, single point] |  |
| CN1CCc2c(sc(/N=C/c3ccco3)c2C(N)=O)C1 | inconclusive: 25.1 µM [inhibitor, partial curve] |  |
